Data: the supplement of paper PMC11417369
± gives the standard deviation of the averaged measurements. The list shows a part of the results.

What follows are sequences tested on PfAP2-LT AP2 domain (GST-tagged) (assay: gcPBM binding intensity (ln(normalized median fluorescence intensity)); higher = stronger DNA binding).
How it was run: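 Binding intensity is the highest Masliner-normalised natural-log median intensity over replicate spots in either probe orientation. To obtain it, GST-tagged P. falciparum DNA-binding domains made in E. coli were incubated for 1 h on an Agilent 4 × 180k array of primer-extended double-stranded 36-bp intergenic genomic probes plus negative controls. Detection used Alexa488 anti-GST antibody with scanning at 488 nm.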

Sequence | gcPBM binding intensity (ln)
AAAATCTAATATAATGCACACATAAAAAAAAAATCA [CACACA_site8871] | 8.96 ± 0.38
ATTTTTTTGTGTTTGGTACACACGTTATAAAAAATA [CACACA_site1345] | 8.74 ± 0.41
TTGGTAATAATTTGAGGTACACTGTATAAATTTTTT [XGTACX_site909] | 8.52 ± 0.46
TTTTTTTCTTAAAGATGTACTTTTTTAAAATAATCT [XGTACX_site3663] | 8.2 ± 0.58
AATAATAAATTATGGTGTACGCATTTGTATATATAC [XGTACX_site5417] | 9.01 ± 0.4
TAAAAGAAATATACATGTACATAAATATATATATAT [XGTACX_site1276] | 9.09 ± 0.35
TATATTTGGAAATATTCTCAATTGGTACAAATAAAA [CACACA_negctrl_site1202] | 8.38 ± 0.45
GCCCAACCAAAATATACACACAGTTGAATGAATAAA [CACACA_site2597] | 9.06 ± 0.47
GATATGTGACGTTTGGTATTTTTGATGTTGGTAGGA [CACACA_negctrl_site1448] | 8.87 ± 0.4
GGAAAATACATTCCAGTGCATTAATTTATTCAACGT | 8.82 ± 0.41
AAAAAAATAAAATTATATAAAATAAATTTTTATAAT [GTGCAC_negctrl_site587] | 8.29 ± 0.42
TTTTGGATCATTTGTTGTACATATGCAAAAAAAAAA [XGTACX_site3157] | 8.33 ± 0.34
TATGATACATAATATACATGCATACACAACATTCAG [TGCATGCA_site487] | 8.94 ± 0.37
TTTTTTAAAAAAGTTTTCTGTATTTATATATATATA [CACACA_negctrl_site31] | 8.31 ± 0.39
TTAACCTTTTGATATTGTACCCATAATCTAATACAA [XGTACX_site769] | 8.55 ± 0.46
TCATATGTATAAATTAGTACATATTTAATGGATATA [XGTACX_site3298] | 8.59 ± 0.3
CTATCTACATAAACGTGTACCCACAAATAAATAAAT [XGTACX_site5210] | 8.82 ± 0.37
AGGCACGTGTTATATACACACATAATCAAATAAACT [CACACA_site7852] | 9.36 ± 0.38
TTATGTCATAAATGCACACATATATATATACATATA [CACACA_site1588] | 8.95 ± 0.33
AAAATAATAACATTGTGTACATAAAAAGAAAACCTT [XGTACX_site840] | 8.95 ± 0.46
ACATTTTATACGATAAAATGTATAAGATTATGAAGA [TGCATGCA_negctrl_site476] | 8.72 ± 0.44
TATGAATGGTTAAGTACACACATATTAATATATGTA [CACACA_site3490] | 8.93 ± 0.38

Sequence | gcPBM binding intensity (ln)
AAATGAAAATAAAGCAACAGAAATATAATGTATTAT [GTGCAC_negctrl_site508] | 8.94 ± 0.52
TTTTTTTACAACATTACACACAAATATTCTGTGTTA [CACACA_site5957] | 9.14 ± 0.42
ATATTACAACATTTTATACACACGTGATTATTAATT [CACACA_site2877] | 9.04 ± 0.45
AACAAAAATAATAATCAAATAAATAAATGAAAACAT [CACACA_negctrl_site456] | 8.95 ± 0.54
AATCGTGTTCTGAATACACACTAATACAAATTTGTA [CACACA_site6058] | 8.91 ± 0.26
AGAAAATTAAAAAGAACACACAAATATATATATAAT [CACACA_site5896] | 9.11 ± 0.5
AACATTTTAAAACAGACACACACCAAAAAAAAAAAA [CACACA_site257] | 9.21 ± 0.38
CACCCATAAATATACACACGCACAACACAAAATAAA [CACACA_site2903] | 9.63 ± 0.41
ATATATATATATACATGTACAAATGTATAACAAATG [XGTACX_site145] | 9.16 ± 0.3
TGGTACCTTACTTTTACACACTTTTTTTTTTTTTTT [CACACA_site1557] | 8.96 ± 0.46
TTTTGAGTAGCCTATTGTACGAACTTTTTAAATACA [XGTACX_site1224] | 8.51 ± 0.52
AATATATACGCATGCGCACACACAAGTGGGAAATTT [CACACA_site1786] | 9.64 ± 0.32
CCATTTTAAATATGCACACAGATGCACTAACACATT [CACACA_site5099] | 9.25 ± 0.34
CATCCTATTACTTGGTGTACTATTTTATATTGAATA [XGTACX_site1050] | 8.95 ± 0.48
ATAAATTTATCCAAGTGTACAAAGCTAACATTTTTT [XGTACX_site4399] | 8.71 ± 0.37
GTTTATAAAATAAGAAGTACTTTATGAGAACCATAT [XGTACX_site5789] | 8.63 ± 0.44
AAAAATGGAATTATCTGTACATATATAGTTTTTAAA [XGTACX_site5580] | 8.44 ± 0.45
ATAAACAAGACGCAACAAAGTAGAAATTAAAAATAA [CACACA_negctrl_site345] | 9.06 ± 0.54
TTAAAGATATACAAAAGTACTTTTTTTTTCGTCATT [XGTACX_site384] | 8.55 ± 0.47
TTCATTAAATAGAACAAAATAATAATATAACAACAA [GTGCAC_negctrl_site116] | 8.7 ± 0.51
CCATATCTTTTTTGCACACACTACAATAAAACAAAA [CACACA_site4995] | 9.07 ± 0.25
GGTTCATATATTAACACACACATACATATTATATAT [CACACA_site2937] | 9.46 ± 0.34

Sequence | gcPBM binding intensity (ln)
TGAGAGAGAAACGTAGTGCATAAAATCAAATTTAGA [GTGCAC_site9737] | 8.94 ± 0.55
AATAATCATAGTTCTACACACCTATATTGCAAAAAA [CACACA_site867] | 8.8 ± 0.35
TACAAAAATAAATGTTGTACTATTATTTATTTCGAT [XGTACX_site1048] | 8.56 ± 0.49
TAATATGTATTTACAAGTACTAACAAAATATTAAAA [XGTACX_site3379] | 8.51 ± 0.49
TTATAAAAAATTTTAGTGCATATATGATTTATATAT [GTGCAC_site9831] | 8.44 ± 0.39
TATATAGCATATTTCACACACACATAATGAATATTA [CACACA_site3546] | 9.41 ± 0.34
ATGATATACGTAAACACACAAATAAAAAAAATTTAT [CACACA_site7544] | 8.96 ± 0.52
TTTTTTAGTTTTTAGTGTACATAAATAAATAAATAA [XGTACX_site2843] | 8.11 ± 0.45
TTAAAAAGAAAGTTCACACACATATAGATGACGGAA [CACACA_site7268] | 9.19 ± 0.44
TGATACTTATGATAAATACACACTTGAAATTAAGGA [CACACA_site1152] | 8.76 ± 0.34
TATATTACAAAAAGTACACACATAAATAAATACATA [CACACA_site975] | 9.19 ± 0.46
ATGCTCAAAAGATATGCATGTACAAATATATGAAAT [TGCATGCA_site592] | 8.99 ± 0.38
TATCAAATGTATATATGTACTTATATTTTTTTTATA [XGTACX_site1501] | 8.56 ± 0.55
AAATTAAAATAATAATTCTACAAATTAATTTATCAT [XGTACX_negctrl_site44] | 8.3 ± 0.51
AATATATTTTCCTGCAAACACACATATAAATGTGTA [CACACA_site532] | 8.84 ± 0.38
TTTCTTTTTTTTTTTGTATATTAAATCTAAAAAGGA [TGCATGCA_negctrl_site431] | 8.02 ± 0.33
ACTTCAAAAATAAACTGTACGTAAAAAAAAAAAAAA [XGTACX_site795] | 8.66 ± 0.39
TTTAAATAAAATATTACACACTTAGAAAAATATATA [CACACA_site3663] | 8.47 ± 0.44
TTTCGTAAAATGAAATGTACTCAAAAGTAAATATAA [XGTACX_site214] | 8.62 ± 0.47
GATATAATGTGTTTGGTATTCTTGATAGATAGTTTT [CACACA_negctrl_site1711] | 8.83 ± 0.44
ACATACATACACCCACGTACGTACCGAAACACCACC [XGTACX_site1212] | 9.41 ± 0.49
ATGATGTCTTTATATTGTACATATATGAAGACGTTA [XGTACX_site7751] | 8.54 ± 0.3

Sequence | gcPBM binding intensity (ln)
AGAATAAAAAGGAACACACACACACGCATATAAATA [CACACA_site7659] | 10.1 ± 0.39
TTAAAAAAAAATGGCACACATTTTAATTTTATGTTT [CACACA_site5035] | 8.52 ± 0.45
TTTATTTAATTCATTGCATGTAATTTTTGTGTCCAC [TGCATGCA_site677] | 8.84 ± 0.46
TTTTATGATAATTTTGCACACACTTAGGAAAAATTA [CACACA_site1556] | 8.96 ± 0.34
TTGTGATTATATAATCGTACATAATTTTAATCACAC [XGTACX_site398] | 8.73 ± 0.38
AAAAAAAAAAAAAACACACACATATCTATAATATAT [CACACA_site7481] | 9.35 ± 0.44
GAATATAAACATATTACACACATCTATATGTACTTT [CACACA_site8582] | 9.18 ± 0.38
CAAAACAAAGTTGCCGCACACAGATACGCACCCAAG [CACACA_site3455] | 9.35 ± 0.38
ATTTTTTCTAATGGGTGTACTGAAACGTATTTTATT [XGTACX_site6573] | 8.94 ± 0.42
ATTTATTTATATAATACACACAAATATCTTAATGAA [CACACA_site6064] | 8.62 ± 0.42
ATTTGTAATTATTAAACACACACAAAATATATATAA [CACACA_site8804] | 9.07 ± 0.38
GTAATATTATAATATACACACATAGAATATAAATAT [CACACA_site6333] | 9.12 ± 0.36
AAAATACACCAACACACACACATATATATATATATT [CACACA_site4149] | 9.91 ± 0.38
TTCAAGATTTATTATACACACATATTAATATATATA [CACACA_site573] | 8.71 ± 0.37
ATATAATATTGAGTTTGTACATATATATATGAAGAT [XGTACX_site4444] | 8.79 ± 0.4
TAGCCAAAATATAATTTACACACTTATTAAATAATT [CACACA_site7963] | 8.62 ± 0.46
AAAAAAAAAAAAAAATGTACATTATACACATTATAT [XGTACX_site6824] | 8.81 ± 0.32
AATTATGCATTTGTCACACATATATATTACACTTGC [CACACA_site5324] | 9.19 ± 0.42
ATTTTCCCTTGTTTTACACACGTGCTGATATGAGAT [CACACA_site2164] | 9.48 ± 0.32
AAATAAATATATATATGTACATACAAATACACGGTA [XGTACX_site8510] | 9.09 ± 0.4
AAGAAAAATGTCATATGATATCATATATTTTATAAT [TGCATGCA_negctrl_site296] | 8.61 ± 0.49
TATATAAATAGACACACACACACATATAAATAAATA [CACACA_site7855] | 10 ± 0.34
